{
  "source": "PubChem BioAssay AID2546",
  "about": "(National Center for Advancing Translational Sciences (NCATS), 2010)",
  "note": "Hit rate of the full screen: of about 310,000 compounds, about 11,000 (3.5%) were called active. The inconclusive results got no clear call from the source; some entries with a clear call stand among them for comparison. Calls come from the whole dose curve; as a rule, active = well fitted inhibition curve with a large enough effect; inconclusive = small, poorly fitted or top-dose-only effect, or effect the other way; inactive = flat fitted curve, though single readings scatter. Potencies of inconclusive entries are left out as doubtful fits. % is set by controls: 0 for no effect and ±100 for the full control effect; potency is the fitted concentration of half-maximal effect; tags give direction and shape of the fitted curve.",
  "data": [
    {"assay": "VP16 counterscreen qHTS for inhibitors of ROR gamma transcriptional activity;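 note: Gal4-VP16 expression switched on by copper sulfate through the metallothionein promoter; nearly all actives have a fitted effect of over 50% in size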", "settings": "Drosophila S2 Gal4-VP16 UAS-luciferase, luminescence, 20 h; activity, negative = inhibition: at 53.6 µM (top of the series)", "values": [
      {"molecule": "C=CCOC(=O)C1=C(C)NC(C)=C(C(=O)OCC=C)C1c1ccc(C)o1", "Potency": "inconclusive [inhibitor, full curve, poor fit]"},
      {"molecule": "CN(C)S(=O)(=O)c1cc(NC2CC(=O)N(c3ccc(F)cc3)C2=O)ccc1Cl", "note": "(configuration not stated)", "Potency": "inactive"},
      {"molecule": "COC(=O)c1cc(NC(=O)c2cc(-c3ccc(OC)cc3)oc2C(F)(F)F)ccc1N1CCOCC1", "Potency": "inconclusive [inhibitor, single point]"},
      {"molecule": "COc1ccccc1C(=O)N/C(N)=N/c1nc2ccccc2o1", "Potency": "inconclusive [inhibitor, single point]"},
      {"molecule": "COC(=O)c1sc2nc(CN3CCN(c4cccc(C(F)(F)F)c4)CC3)[nH]c(=O)c2c1C", "Potency": "inconclusive [inhibitor, single point]"},
      {"molecule": "Cc1cc(SCC(=O)c2ccccc2)nc(C)n1", "Potency": "inactive"},
      {"molecule": "O=S(=O)(c1ccccc1)N1N=C(c2ccccc2)CC1c1ccccc1", "note": "(configuration not stated)", "Potency": "inconclusive [inhibitor, single point]"},
      {"molecule": "Cc1ccc(C2Nc3ccc4ccccc4c3C3=C2C(=O)CC(C)(C)C3)o1", "note": "(configuration not stated)", "Potency": "inactive"},
      {"molecule": "COc1ccc(C(=O)Nc2cccc(-c3nnc(-c4ccco4)o3)c2)cc1", "Potency": "inconclusive [inhibitor, full curve, poor fit]"},
      {"molecule": "Cc1ccc(C)c(N2CCN(C(=S)Nc3ccc4nc(N5CCOCC5)cc(C)c4c3)CC2)c1", "Potency": "inconclusive [inhibitor, full curve]"},
      {"molecule": "COc1ccc(C(NC(=O)/C=C/c2ccco2)c2ccc(OC)c(OC)c2)cc1OC", "Potency": "inconclusive [inhibitor, single point]"},
      {"molecule": "COc1ccc(-n2c(SCC(=O)N(C)c3ccccc3)nc3c([nH]c4ccccc43)c2=O)cc1OC", "Potency": "inconclusive [inhibitor, single point]"},
      {"molecule": "CCn1cc([N+](=O)[O-])c(C(=O)N2N=C(c3cccc4ccccc34)CC2c2ccccc2O)n1", "note": "(configuration not stated)", "Potency": "inconclusive [inhibitor, partial curve, poor fit]"},
      {"molecule": "CCOc1ccc(N(CC(=O)NC2CCCCCC2)S(=O)(=O)c2ccccc2)cc1", "Potency": "inconclusive [inhibitor, single point]"},
      {"molecule": "COC(=O)c1cccc(S(=O)(=O)N(Cc2ccco2)Cc2cc3cc(OC)ccc3[nH]c2=O)c1", "Potency": "inactive"},
      {"molecule": "Cc1cc(C(=O)N/N=C/C=C/c2cccc([N+](=O)[O-])c2)n[nH]1", "Potency": "inactive"},
      {"molecule": "C/C(=N\\N(C)C)c1ccc(OCCOc2ccc([N+](=O)[O-])cc2)cc1", "Potency": "inactive"},
      {"molecule": "COc1ccc2oc(C(=O)Nc3ccccn3)c(C)c2c1", "Potency": "inconclusive [inhibitor, single point]"},
      {"molecule": "NS(=O)(=O)c1ccc(NC(=O)Nc2cccc(Cl)c2)cc1", "Potency": "inconclusive [inhibitor, single point]"},
      {"molecule": "Cc1ccc(-c2nnc(NC3CCCC3)s2)cc1", "Potency": "inconclusive [inhibitor, single point]"},
      {"molecule": "Cc1nc2ccccn2c1-c1nnco1", "Potency": "inactive"},
      {"molecule": "Cc1c(C)c2ccc(OCC(=O)Nc3ccccn3)c(C)c2oc1=O", "Potency": "inconclusive [inhibitor, full curve]"},
      {"molecule": "O=C(Nc1cccc([N+](=O)[O-])c1)C1C2/C=C\\CCCCC21", "note": "(configuration not stated)", "activity, negative = inhibition": "inactive: -5.99% [at 10 µM]"},
      {"molecule": "CCn1c(SCC(=O)N/N=C/c2c[nH]c3ccccc23)nnc1-c1ccc(C)cc1", "Potency": "inconclusive [inhibitor, single point]"},
      {"molecule": "CCC(=O)Nc1ccc(C(=O)Cn2ncc(Cl)c(Cl)c2=O)cc1", "Potency": "inactive"},
      {"molecule": "O=C(Oc1ccc(OC(=O)N2CCCCC2)cc1)c1ccccc1", "Potency": "inconclusive [inhibitor, full curve, poor fit]"},
      {"molecule": "O=C(Nc1ccc([N+](=O)[O-])cn1)c1ccc2c(c1)OCO2", "Potency": "inconclusive [activator, full curve, poor fit]"},
      {"molecule": "CN(CCNC(=O)c1cc2c(=O)n(C)c3ccccc3c2n1C)Cc1ccccc1", "Potency": "inconclusive [inhibitor, single point]"},
      {"molecule": "CO[C@@H]1COC(=O)[C@H](C)NC(=O)[C@@H](C)COC(=O)CCC[C@H]1C", "activity, negative = inhibition": "inactive: -0.61% [at 10 µM]"},
      {"molecule": "CCOc1ccc(-c2ccc(/C=C3/C(=N)N4C(C)=CSC4=NC3=O)o2)c([N+](=O)[O-])c1", "Potency": "inconclusive [inhibitor, single point]"},
      {"molecule": "COCCCN(C(=O)Cc1ccc(Cl)c(Cl)c1)c1c(N)n(Cc2ccccc2)c(=O)[nH]c1=O", "Potency": "inconclusive [inhibitor, partial curve]"},
      {"molecule": "O=C(NCC(c1cccs1)N1CCOCC1)c1ccccc1NS(=O)(=O)c1ccc(Cl)c([N+](=O)[O-])c1", "note": "(configuration not stated)", "Potency": "inconclusive [inhibitor, single point]"},
      {"molecule": "CC(=O)NCc1ccc(C(=O)CCl)cc1", "Potency": "inconclusive [inhibitor, single point]"},
      {"molecule": "Nc1nn(-c2cccc(F)n2)cc1-c1ccccc1", "Potency": "inconclusive [inhibitor, single point]"},
      {"molecule": "COc1ccccc1NC(=O)c1c(N=Cc2ccccc2O)cnn1C", "Potency": "inconclusive [inhibitor, single point]"},
      {"molecule": "CCC(CC)NC(=O)Nc1ccc(F)c(Cl)c1", "Potency": "inconclusive [inhibitor, single point]"},
      {"molecule": "COc1cccc(N2CCN(Cc3cccnc3)CC2)c1", "Potency": "inactive"},
      {"molecule": "O=C(COc1ccc2ccccc2c1)Nc1ccc2c3c(cccc13)CC2", "Potency": "inconclusive [inhibitor, single point]"},
      {"molecule": "Cc1cc(C)c2sc(NNC(=O)C3COc4ccccc4O3)nc2c1", "note": "(configuration not stated)", "Potency": "active: 17.8 µM"},
      {"molecule": "Cc1cc(N/C=C/C(=O)c2ccccc2)ccc1Br", "Potency": "inconclusive [inhibitor, single point]"},
      {"molecule": "Cc1nn2c(SCC(=O)c3cccs3)cc(C(C)(C)C)nc2c1-c1ccccc1", "Potency": "active: 7.08 µM"},
      {"molecule": "O=C(NC1CCCC1)c1n[nH]c2ccccc12", "Potency": "inconclusive [activator, partial curve]"},
      {"molecule": "O=C(CCl)N(C1CCCC1)C1CCS(=O)(=O)C1", "note": "(configuration not stated)", "Potency": "active: 15.8 µM"},
      {"molecule": "CCC(=O)N1CCN(c2ccc(NC(=S)NC(=O)c3cccc([N+](=O)[O-])c3)cc2)CC1", "Potency": "inconclusive [inhibitor, single point]"},
      {"molecule": "c1ccc(CNc2nc(-c3ccccn3)nc3ccccc23)cc1", "Potency": "active: 3.55 µM"},
      {"molecule": "Cc1cccc(/C=C/c2onc(C)c2S(=O)(=O)N2CCC(C(=O)N3CCCCC3)CC2)c1", "Potency": "inactive"},
      {"molecule": "Cc1ccc(NC(=O)c2ccccc2O)cc1", "Potency": "inconclusive [inhibitor, single point]"},
      {"molecule": "Cc1cc(NC(=O)COc2ccc(C(C)(C)C)cc2)no1", "Potency": "inconclusive [activator, single point]"},
      {"molecule": "O=C(COC(=O)CCc1c[nH]c2ccccc12)NCc1ccc2c(c1)OCO2", "Potency": "inactive"},
      {"molecule": "COc1cccc([C@@H]2Oc3ccc(Br)cc3C(=O)[C@H]2OC(=O)NCc2ccco2)c1", "Potency": "inactive"},
      {"molecule": "COc1ccc(Nc2oc(COc3ccc(OC)cc3)nc2C#N)cc1", "Potency": "inconclusive [inhibitor, single point]"},
      {"molecule": "COc1ccc(NC(=O)CNC(=O)N2CC(=O)Nc3ccccc32)cc1OC", "Potency": "inactive"},
      {"molecule": "COc1cc(/C=N/n2cnnc2)ccc1OC(=O)c1ccncc1", "Potency": "inconclusive [inhibitor, partial curve, poor fit]"},
      {"molecule": "COc1ccc(Nc2nc(N)nc(CN3CCC(Cc4ccccc4)CC3)n2)cc1", "Potency": "inconclusive [inhibitor, single point]"},
      {"molecule": "CC(=O)N1CCCc2cc(S(=O)(=O)N3CCCC(C(=O)N4CCN(c5ccccc5)CC4)C3)ccc21", "note": "(configuration not stated)", "Potency": "inconclusive [inhibitor, single point]"},
      {"molecule": "CCOc1ccc(C(=O)NNC2CC(=O)N(Cc3ccc(Cl)cc3)C2=O)cc1OC", "note": "(configuration not stated)", "Potency": "active: 1.26 µM"},
      {"molecule": "COc1ccc([N+](=O)[O-])cc1/C=N/NC(=O)CNC(=O)C(c1ccccc1)c1ccccc1", "Potency": "inconclusive [inhibitor, single point]"},
      {"molecule": "CCOC(=O)C1CCN(Cc2ccc(O)c3ncccc23)CC1", "Potency": "active: 5.01 µM"},
      {"molecule": "CCN=c1scc(C)n1/N=C/c1ccc(O)c(O)c1O", "Potency": "inconclusive [inhibitor, partial curve]"},
      {"molecule": "COc1cnc(-c2ccccn2)nc1Sc1cccc(Cl)c1", "Potency": "active: 8.91 µM"},
      {"molecule": "O=C(Nc1nc2c(F)cc(F)cc2s1)c1ccccn1", "Potency": "active: 2 µM"},
      {"molecule": "CC(C)C(=O)NC(=S)Nc1ccc(S(=O)(=O)NC2CCCCC2)cc1", "Potency": "inconclusive [inhibitor, single point]"},
      {"molecule": "N#Cc1cccc(-c2nc3cnc(N4CCNCC4)nc3n(C3CC3)c2=O)c1", "Potency": "inconclusive [inhibitor, single point]"},
      {"molecule": "CCOC(=O)c1sc2cccc(Cl)c2c1N", "Potency": "inconclusive [activator, single point]"},
      {"molecule": "COc1cccc(/C(=N/O)C2CC2c2ccc(Cl)cc2)c1", "note": "(configuration not stated)", "Potency": "inactive"},
      {"molecule": "CN(C)S(=O)(=O)N1CCC(Oc2ccc(C(=O)NCc3cnn(C)c3)cc2)CC1", "Potency": "inconclusive [inhibitor, single point]"},
      {"molecule": "CCOc1ccccc1N", "Potency": "inactive"},
      {"molecule": "N=C1N=C(N)c2cc3ccccc3cc21", "Potency": "inactive"},
      {"molecule": "Cc1ccsc1C=Nc1ccc(O)cc1", "Potency": "inconclusive [inhibitor, single point]"},
      {"molecule": "Cc1ccc(C)c(-c2nnc(NC(=O)Cc3ccc(F)cc3)o2)c1", "Potency": "active: 0.562 µM"},
      {"molecule": "CCn1ccc(=N)cc1", "Potency": "active: 15.8 µM"},
      {"molecule": "Nc1ccc2nc(CCCO)[nH]c2c1", "Potency": "inactive"}
    ]}
  ]
}
